In all, about 33,000 sequences were measured (“E-score (-0.5 to 0.5)”: median about -0.016, highest 2% from about 0.32 on). Some of the results follow.
Each sequence was assayed against T1, Stp1 (UniProt B3LFK1) (assay: PBM E-score (8-mer binding enrichment) (E-score (-0.5 to 0.5)); higher = stronger / more preferred TF binding; most listed sequences are background and not binding sites). Details: protein concentration: 200 nM; construct: GST-full length.
T1 sequence: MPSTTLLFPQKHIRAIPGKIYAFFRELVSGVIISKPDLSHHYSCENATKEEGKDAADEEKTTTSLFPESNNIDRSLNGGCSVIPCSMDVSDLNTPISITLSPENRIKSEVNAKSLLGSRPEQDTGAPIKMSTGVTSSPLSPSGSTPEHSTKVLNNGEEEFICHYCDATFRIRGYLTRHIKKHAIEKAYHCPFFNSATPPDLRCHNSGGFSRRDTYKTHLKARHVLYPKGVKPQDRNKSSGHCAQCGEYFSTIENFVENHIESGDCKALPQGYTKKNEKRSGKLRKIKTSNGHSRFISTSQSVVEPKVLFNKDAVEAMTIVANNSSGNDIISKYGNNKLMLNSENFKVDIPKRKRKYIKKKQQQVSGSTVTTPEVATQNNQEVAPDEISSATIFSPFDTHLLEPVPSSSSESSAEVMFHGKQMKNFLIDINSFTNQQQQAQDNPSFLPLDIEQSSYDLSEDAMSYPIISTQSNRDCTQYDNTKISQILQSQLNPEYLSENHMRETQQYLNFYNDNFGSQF
Outline: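 PURExpress in vitro transcription/translation supplied GST-tagged yeast transcription factors, either full-length or DNA-binding domain. Applied at about 100-200 nM to universal all-10-mer Agilent arrays double-stranded by primer extension, the bound protein was detected with fluorescent anti-GST. E-scores, modified Wilcoxon-Mann-Whitney statistics, were given by the Universal PBM Analysis Suite to ungapped eight-base words pooled with their reverse complements after masliner normalisation.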

| Sequence | PBM E-score |
| --- | --- |
| GGATGCTA | -0.149 |
| ATTCCAAG | 0.0348 |
| CCGCTACC | -0.0466 |
| ACCCAAAT | 0.163 |
| GATAGGGA | -0.171 |
| AGACACTA | 0.0195 |
| ATGTGGTC | -0.121 |
| TAAGTGCA | 0.0837 |
| AATCATAA | 0.0159 |
| CAATTTAG | 0.0614 |
| TCTCATAA | 0.0161 |
| CGGGTCGC | -0.0247 |
| TAGGTAAA | 0.0893 |
| TGTAGAAA | 0.0375 |
| AAGTCTAA | -0.151 |
| ATTCGCGG | 0.192 |
| ACATCTCC | -0.208 |
| ATGCTCAC | -0.251 |
| CCTTCGCC | 0.118 |
| CTCCTACA | -0.156 |
| CCGGATTC | -0.134 |
| CATACAAC | 0.0945 |
| AACCTGGA | -0.137 |
| CCCCTCAG | -0.336 |
| TGCTACAA | 0.0595 |

| Sequence | PBM E-score |
| --- | --- |
| AACCACTT | -0.046 |
| AGCTTCCC | -0.393 |
| CATCCTTC | -0.165 |
| CGGTATAG | -0.184 |
| TACGCCCA | -0.0659 |
| AAACAATT | 0.159 |
| AAACGGTG | 0.1 |
| CTTAATGC | 0.181 |
| CTAATTAA | 0.0857 |
| GGACGGCC | 0.16 |
| AACAATAT | 0.302 |
| ACAAACCC | -0.0458 |
| AGGGGAGC | -0.195 |
| CACCGGAG | -0.0522 |
| GCTAAAAC | 0.0711 |
| CGCCTCAC | 0.395 |
| CAGAGTTC | -0.0264 |
| CCCGCTAG | -0.266 |
| AGTGCCGA | 0.322 |
| GAGATAGC | -0.111 |
| GAACTTCA | -0.0508 |
| GGTGTCAA | -0.03 |
| TTCGGAAA | 0.0851 |
| CAACCAAC | -0.103 |
| AGCCTCCA | -0.184 |

| Sequence | PBM E-score |
| --- | --- |
| ATTAGATA | 0.11 |
| GAATTTCA | -0.153 |
| CTCATTGC | 0.092 |
| CCCTCTCG | -0.378 |
| CCAGGCAC | -0.174 |
| AGTATTGC | 0.012 |
| CTCTGCGC | 0.0316 |
| GGTACAAC | -0.0615 |
| CTAGCCTA | -0.0144 |
| CCTGACGA | 0.131 |
| CGCCCTTC | 0.156 |
| TAGCGTAA | 0.0549 |
| AGGACGGG | -0.271 |
| GAAGGAAA | 0.0243 |
| GCAGTTAA | 0.0839 |
| ATTCCTTG | 0.0722 |
| TCCTACCA | -0.213 |
| ACATCTAC | -0.0357 |
| GGGTTCGA | -0.163 |
| TGAGGGCA | -0.154 |
| GGGTCAAC | -0.153 |
| AACGCTGT | 0.137 |
| AGCCGCAC | 0.42 |
| CATCGTTC | 0.0739 |
| AACGTCAG | -0.229 |

| Sequence | PBM E-score |
| --- | --- |
| CAAATGCG | 0.117 |
| ATTGAACC | -0.0807 |
| AATATCCC | -0.0616 |
| ATTAGGGC | -0.0698 |
| CCAAAAAA | 0.252 |
| GCTCCCCC | -0.314 |
| AGGCTGAT | -0.155 |
| CGTTGGGC | -0.137 |
| GAACTCTA | -0.0132 |
| GGAGCGAC | -0.102 |
| GGGCATAA | 0.0801 |
| ACTCTTGA | -0.0263 |
| TCAATTAA | 0.238 |
| ATAACTCA | -0.0274 |
| CTCTTTAA | -0.0371 |
| GAACGTAC | 0.0539 |
| ACGCATCG | 0.0171 |
| GTGATCTA | 0.0423 |
| CATACGTA | 0.209 |
| ACCACATA | 0.153 |
| GCTAGGTA | -0.121 |
| TCCCACGA | -0.0504 |
| CCGGACTA | 0.0944 |
| TAAACGCA | -0.0863 |
| AGATGAAT | -0.155 |

| Sequence | PBM E-score |
| --- | --- |
| AGGGTAAG | -0.163 |
| AACAAATA | 0.279 |
| ATTACACG | 0.152 |
| CACACGAC | -0.0216 |
| AAGTTGTG | 0.0756 |
| CGGCATAC | 0.27 |
| AAAAACGT | -0.111 |
| AGGCTTAC | -0.116 |
| ATCGAAGG | 0.0854 |
| GTGTGAAA | 0.185 |
| GTAGTACA | 0.0272 |
| ATCACGAT | -0.0303 |
| GGACAGGA | -0.174 |
| ACGCTAAG | 0.00258 |
| CATCCACA | -0.0242 |
| CGACCATC | -0.168 |
| ATGTGCTA | -0.0142 |
| AACTTGAG | -0.221 |
| AGTAACTC | -0.137 |
| GTCCCACA | -0.222 |
| ACGCTTTA | -0.211 |
| TAATCTGA | -0.0381 |
| CAGGTCAC | -0.288 |
| CGATTTCC | -0.0263 |
| CTATCTGA | -0.196 |

| Sequence | PBM E-score |
| --- | --- |
| GCCGTCGC | 0.351 |
| GGCAGATA | -0.0304 |
| CCCACCGA | -0.24 |
| AGTGTGGG | -0.13 |
| AGCAAAGG | 0.117 |
| GGCGATTA | 0.29 |
| AATGCTAA | -0.0111 |
| CAGGCGAC | -0.138 |
| ACGCAGAG | -0.0454 |
| GGTTAAGA | 0.0755 |
| ACATGACC | -0.252 |
| TCAGATCA | -0.0247 |
| GTACGAGA | 0.019 |
| AGTAAGAC | -0.0276 |
| GGTGAAAC | 0.0103 |
| CTTGTCCC | 0.0187 |
| ATTTCGAA | 0.151 |
| GAAACTCC | -0.192 |
| CTTTTATC | 0.0442 |
| AGGTCAAG | -0.223 |
| CCCGCTTA | 0.0273 |
| GCAGCTCC | -0.235 |
| CGTAACGC | 0.124 |
| CAGCCATG | 0.0668 |
| AGCAAATA | 0.111 |

| Sequence | PBM E-score |
| --- | --- |
| GGCTCTAA | 0.177 |
| CAAGGGTC | -0.138 |
| AAGCTATA | 0.106 |
| GTTGCGTA | 0.0808 |
| CGAAATAC | 0.11 |
| AACGGAGT | 0.106 |
| ACGTAAGC | -0.088 |
| CGAGGTGC | 0.0197 |
| GCTAGCTA | -0.111 |
| ATCTCGTA | 0.166 |
| GGTTAGAA | -0.217 |
| TACTAGAA | 0.191 |
| GAGCCCAA | 0.0694 |
| CTCGAGTC | 0.0231 |
| CATGCACC | -0.157 |
| ATTATATC | -0.0228 |
| ATGGAGAC | -0.127 |
| AAAGTTAT | 0.113 |
| CCAGATAG | -0.136 |
| CGGTATTC | -0.0265 |
| GGGTTGCA | -0.219 |
| AAGATTGC | 0.0941 |

Source: the supplement of paper PMC3334620
